According to PubChem BioAssay AID1347120 (National Center for Advancing Translational Sciences (NCATS), 2019):
Screen size: about 390,000 compounds; about 930 (0.24%) were called active. The shares of active, inactive and inconclusive entries below differ from those in the screen. The call rests on the fitted dose curve; in most records, active means well fitted activation curve with a large enough effect; inconclusive means small, poorly fitted or top-dose-only effect; inactive means no such curve, though single readings can be large or run the other way. Where the call is inconclusive, the potency comes from a doubtful curve fit.

Assay: qHTS for Suppressors of FUS Proteinopathy: Primary screen using FUS-linked yeast assay; further: nearly all actives have a fitted effect of over 55% in size;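 on growth rescue (activation): plate controls were DMSO vehicle for no effect and reference control for full effect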
Details: S. cerevisiae FUS-expressing, OD600, 24 h; Potency: growth rescue; growth rescue (activation): at 76.6 µM (top of the series)
Method in brief: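 Quantitative HTS measuring growth restoration of FUS-toxic yeast. Galactose-induced cells (OD 0.005) were exposed 24hr at 30C to compounds at several concentrations, then absorbance at 600 nm was recorded.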
Potency means the concentration at half of the fitted maximal effect; tags describe the fitted curve by direction and shape.

Compound	Potency	growth rescue (activation)
CCc1ccc2nc(N(CCCN(C)C)C(=O)c3ccc(S(=O)(=O)N4CCCc5ccccc54)cc3)sc2c1	inconclusive: 39.8 µM [activator, single point]	
CN(C)c1ccc(NC(=O)c2sc(SCC(=O)Nc3nccs3)nc2N)cc1	inconclusive: 22.4 µM [activator, partial curve, poor fit]	
CC1CCC(NC(=O)c2ccc3c(c2)N(Cc2ccccc2)C(=O)c2ccccc2S3=O)CC1 (stereo not drawn)	inconclusive: 7.08 µM [activator, full curve]	
COc1ccc(N=C2NC(=O)/C(=C/c3ccco3)S2)cc1		inactive: 18%
Cc1ccc(C(=O)NCc2ccc(N(C)C)cc2)cc1NC(=O)c1nsc2ccccc12	inconclusive: 39.8 µM [activator, single point]	
O=C(Nc1cc(Br)ccc1O)C1CC(c2c(F)cccc2Cl)=NO1 (stereo not drawn)		inactive: -13.2%
CN(CC(=O)Nc1ccc(Cl)c(C(F)(F)F)c1)C(=O)c1ccc(S(=O)(=O)N2CCOCC2)cc1	inconclusive: 8.91 µM [activator, partial curve, poor fit]	
CN1C(=O)C(CC(=O)Nc2ccccc2F)N(NC(=O)c2ccc(Br)cc2)C1=S (stereo not drawn)	inconclusive: 0.794 µM [activator, partial curve, poor fit]	
CC(/C=N/NC(=O)c1nnn(-c2nonc2N)c1CN(C)C)=C\c1ccco1	inconclusive: 35.5 µM [activator, partial curve, poor fit]	
CC1CCN(CCNC(=O)C2CCCN(S(=O)(=O)c3cccc4nonc34)C2)CC1 (stereo not drawn)	inconclusive: 6.31 µM [activator, single point]	
Cc1ccc2c(c1)C(c1ccc(F)cc1)N(C(=O)COc1ccc(Cl)cc1Cl)CC(=O)N2 (stereo not drawn)	inconclusive: 31.6 µM [activator, single point]	
O=C(CSc1c2c(nc3ccc(Cl)cc13)CCCC2)N1CCN(c2cccc(Cl)c2)CC1	inconclusive: 50.1 µM [activator, single point]	
Cc1cccc(NC(=O)c2ccc(N(Cc3ccccc3)S(C)(=O)=O)cc2)c1		inactive: 20.7%
CCOC(=O)[C@@H]1[C@H]2COc3ccccc3[C@@H]2N2C(=O)N(c3cccc(Cl)c3)C(=O)[C@]12C	inconclusive: 20 µM [activator, single point]	
COc1cccc(CSc2nnc(C(F)(F)F)n2Cc2ccc(F)cc2)c1	inconclusive: 22.4 µM [activator, single point]	
Cc1ccc(-n2nc(C(=O)NN)c(C)c(C#N)c2=O)cc1Cl	inconclusive: 10 µM [activator, partial curve, poor fit]	
O=C(NNc1nc2ccc(Cl)cc2s1)c1cc(-c2cccs2)nc2ccccc12		inactive: 25.2%
CCc1ccc2c(c1)c(=O)c(S(=O)(=O)c1ccc(F)cc1)cn2CC(=O)Nc1ccc(C)cc1C		inactive: -10.4%
CCOC(=O)C1=C(CSc2nc(-c3ccncc3)ccc2C#N)OC(N)=C(C#N)C1c1ccc(OC)cc1 (stereo not drawn)	inconclusive: 31.6 µM [activator, partial curve, poor fit]	

Compound	Potency	growth rescue (activation)
COc1ccc([C@H]2[C@H]3C=CC[C@@H](C)[C@@H]3C(=O)N2Cc2ccccc2)cc1Cl	inconclusive: 31.6 µM [activator, single point]	
CCOc1ccccc1N1CCN(C(=O)c2ccc3[nH]c(C)c(C)c3c2)CC1	inconclusive: 35.5 µM [activator, single point]	
O=C(N/C=C\c1ccccc1)NCc1ccc(Cl)cc1	inconclusive: 50.1 µM [activator, single point]	
CCOC(=O)C1CCCN(C(=O)COc2ccc(N(C)S(=O)(=O)c3ccc(C)cc3)cc2)C1 (stereo not drawn)	inconclusive: 22.4 µM [activator, partial curve, poor fit]	
Cc1cccc(CCNC(=O)C2CCN(S(=O)(=O)c3cccc4cccnc34)CC2)c1	inconclusive: 2.51 µM [activator, full curve]	
O=c1ccc(NS(=O)(=O)c2ccc(Cl)cc2)cn1Cc1ccc(Cl)c(Cl)c1	inconclusive: 39.8 µM [activator, single point]	
COCc1cccc(-c2csc(C(O)c3cccc(OC)c3)n2)c1 (stereo not drawn)		inactive: 13.5%
CCCCNC(=O)C1C(c2ccc(C(F)(F)F)cc2)=Nc2ccccc2N1C(=O)c1cccc2ccccc12 (stereo not drawn)	inconclusive: 8.91 µM [activator, partial curve]	
Cc1ccc(Nc2nc(-c3sc(NC(=O)c4ccco4)nc3C)cs2)cc1	inconclusive: 50.1 µM [activator, single point]	
CCN(c1ccc2c(c1)OCO2)S(=O)(=O)c1cc(Br)cc2c1N(C(=O)C1CC1)CC2	active: 17.8 µM	
C[C@H]1[C@H](NC(=O)c2cccc(C(F)(F)F)c2)CC[C@@]23CCCN2C(=O)CCC[C@@H]13		inactive: 12.9%
Cc1ccccc1-c1nc(CS(=O)(=O)CC(=O)NCC(C)c2ccccc2)c(C)o1 (stereo not drawn)	inconclusive: 25.1 µM [activator, single point]	
Cc1ccc(N(C(=O)c2snc(C(N)=O)c2N)C(C(=O)NC2CCCC2)c2ccco2)cc1 (stereo not drawn)	inconclusive: 35.5 µM [activator, single point]	
COc1ccccc1Cc1c(-c2ccc(C#N)cc2)nc2c(C)cc(Br)cn12	inconclusive: 50.1 µM [activator, single point]	
CC(NC(=O)/C(C#N)=C/c1cn[nH]c1-c1ccccc1)c1ccccc1 (stereo not drawn)	inconclusive: 25.1 µM [activator, partial curve, poor fit]	
O=C(CCCCn1c(=O)c2ccccc2n(Cc2ccc(Cl)cc2)c1=O)NCc1ccco1	inconclusive: 5.01 µM [activator, partial curve]	
COc1ccccc1N1CCN(c2ncc(C(=O)N3CCN(c4cccc(Cl)c4)CC3)c3ccccc23)CC1		inactive: 6.97%
COc1cccc(/C=C(/C(=O)OCC(=O)NC2CCCC(C)C2C)c2ccccc2)c1 (stereo not drawn)	inconclusive: 17.8 µM [activator, partial curve, poor fit]	
CCOC(=O)c1c(C)[nH]c(C)c1C(=O)CSc1nc2ccccc2c(=O)n1-c1ccc(F)cc1	inconclusive: 12.6 µM [activator, partial curve, poor fit]	
